# Measured values published in the supplement of paper PMC4604168 (melanoma cell lines).
# This is one part of the list. Most values come without repeats; read them as rough.
# Test system: LB2518-MEL
# Assay: cell count relative to DMSO control; melanoma cells; higher = more viable cells
# Settings: library dose: low library concentration; 72 h
# 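Note: cell number obtained by counting DAPI-stained nuclei in high-throughput microscope images with image analysis software, screen run in 1,536-well plates.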
row,SMILES,cell count [%]
1,"O=C(O)c1ccc(-c2c[nH]c3ncc(-c4ccccc4)cc23)cc1C1CCCC1 + CCN(CC)CCCCNc1ncc2cc(-c3cc(OC)cc(OC)c3)c(NC(=O)NC(C)(C)C)nc2n1 [PD173074] (first compound 0.16 µM, partner dose 0.1 µM)",94.4
2,"O=c1[nH]nc(Sc2ncc([N+](=O)[O-])s2)n1-c1ccc2c(c1)OCCO2 + CN1CCN(c2ccc3nc(-c4c(N)c5c(F)cccc5[nH]c4=O)[nH]c3c2)CC1 [Dovitinib] (first compound 0.2 µM, partner dose 0.1 µM)",84.9
3,"COc1cc(Nc2ncc(F)c(Nc3ccc4c(n3)NC(=O)C(C)(C)O4)n2)cc(OC)c1OC [Tamatinib] + COc1ccc(-c2ccc3c(N4CCOCC4)nc(N4C[C@@H](C)O[C@@H](C)C4)nc3n2)cc1CO [KU0063794] (first compound 0.4 µM, partner dose 0.02 µM)",60.6
4,"O=c1[nH]nc(Sc2ncc([N+](=O)[O-])s2)n1-c1ccc2c(c1)OCCO2 + CCCS(=O)(=O)Nc1ccc(F)c(C(=O)c2c[nH]c3ncc(Cl)cc23)c1F [PLX4720] (first compound 0.2 µM, partner dose 0.08 µM)",102
5,"O=c1[nH]nc(Sc2ncc([N+](=O)[O-])s2)n1-c1ccc2c(c1)OCCO2 + COc1ccc(Cl)c(Nc2nc3ccccc3nc2NS(=O)(=O)c2cccc(NC(=O)C(C)(C)N)c2)c1 [XL147] (first compound 0.2 µM, partner dose 0.8 µM)",95
6,"C[C@@H]1CCN(C(=O)CC#N)C[C@@H]1N(C)c1ncnc2[nH]ccc12 + COc1ccc2c(c1)CCC1C2CCC2(C)C(NCCCCCCN3C(=O)C=CC3=O)CCC12 [U73122] (first compound 1 µM, partner dose 0.4 µM)",105
7,"CC1(C)NC(=O)N(c2ccc([N+](=O)[O-])c(C(F)(F)F)c2)C1=O [nilutamide] + c1cc(-c2cnn3cc(-c4ccc(OCCN5CCCCC5)cc4)cnc23)ccn1 [Dorsomorphin] (first compound 1 µM, partner dose 0.4 µM)",98.4
8,"O=c1[nH]nc(Sc2ncc([N+](=O)[O-])s2)n1-c1ccc2c(c1)OCCO2 + C=CCNC1=C2C[C@@H](C)C[C@H](OC)[C@H](O)[C@@H](C)/C=C(\C)[C@H](OC(N)=O)[C@@H](OC)/C=C\C=C(/C)C(=O)NC(=CC1=O)C2=O [Tanespimycin] (first compound 0.2 µM, partner dose 0.002 µM)",78.1
9,"O=C(Nc1cccc(Cl)c1)Nc1ncc(CCNc2ncnc3ccsc23)s1 + COc1cc(N2CCC(N3CCN(C)CC3)CC2)ccc1Nc1ncc(Cl)c(Nc2ccccc2S(=O)(=O)C(C)C)n1 [NVP-TAE684] (first compound 0.0008 µM, partner dose 0.08 µM)",91.3
10,"O=c1[nH]nc(Sc2ncc([N+](=O)[O-])s2)n1-c1ccc2c(c1)OCCO2 + C[C@]1(c2nc3c(C(N)=O)cccc3[nH]2)CCCN1 [Veliparib] (first compound 0.2 µM, partner dose 1.4 µM)",116
11,"O=C(Nc1cccc(Cl)c1)Nc1ncc(CCNc2ncnc3ccsc23)s1 + CCCCCCCCCCCC1=C(O)C(=O)C=C(O)C1=O [Embelin] (first compound 0.0008 µM, partner dose 1.2 µM)",85.4
12,"O=C(Nc1cccc(Cl)c1)Nc1ncc(CCNc2ncnc3ccsc23)s1 + c1cc(-c2cnn3cc(-c4ccc(OCCN5CCCCC5)cc4)cnc23)ccn1 [Dorsomorphin] (first compound 0.0008 µM, partner dose 0.4 µM)",100
13,"C[C@@H]1CCN(C(=O)CC#N)C[C@@H]1N(C)c1ncnc2[nH]ccc12 + CCCCCCCCCCCC1=C(O)C(=O)C=C(O)C1=O [Embelin] (first compound 1 µM, partner dose 1.2 µM)",89.3
14,"COc1cc(Nc2ncc(F)c(Nc3ccc4c(n3)NC(=O)C(C)(C)O4)n2)cc(OC)c1OC [Tamatinib] + Oc1nc(-c2ccc(C(F)(F)F)cc2)nc2c1CSCC2 [XAV939] (first compound 0.4 µM, partner dose 2 µM)",96
15,"O=C(O)c1ccc(-c2c[nH]c3ncc(-c4ccccc4)cc23)cc1C1CCCC1 + COc1ccc2c(c1)CCC1C2CCC2(C)C(NCCCCCCN3C(=O)C=CC3=O)CCC12 [U73122] (first compound 0.16 µM, partner dose 0.4 µM)",116
16,"O=c1[nH]nc(Sc2ncc([N+](=O)[O-])s2)n1-c1ccc2c(c1)OCCO2 + Nc1ccn([C@@H]2O[C@H](CO)[C@@H](O)C2(F)F)c(=O)n1 [gemcitabine] (first compound 0.2 µM, partner dose 0.0004 µM)",87.2

row,SMILES,cell count [%]
1,"CC1(C)NC(=O)N(c2ccc([N+](=O)[O-])c(C(F)(F)F)c2)C1=O [nilutamide] + CCCCCCCCCCCC1=C(O)C(=O)C=C(O)C1=O [Embelin] (first compound 1 µM, partner dose 1.2 µM)",100
2,"O=c1[nH]nc(Sc2ncc([N+](=O)[O-])s2)n1-c1ccc2c(c1)OCCO2 + CNC(=O)c1cc(Oc2ccc(NC(=O)Nc3ccc(Cl)c(C(F)(F)F)c3)cc2)ccn1 [sorafenib] (first compound 0.2 µM, partner dose 0.4 µM)",103
3,"Cn1cncc1[C@@](N)(c1ccc(Cl)cc1)c1ccc2c(c1)c(-c1cccc(Cl)c1)cc(=O)n2C [tipifarnib] + COC(=O)c1sccc1S(=O)(=O)Nc1ccc(Nc2ccccc2)cc1OC [GSK0660] (first compound 0.01 µM, partner dose 1 µM)",83.6
4,"O=c1[nH]nc(Sc2ncc([N+](=O)[O-])s2)n1-c1ccc2c(c1)OCCO2 + Cc1cn(-c2cc(NC(=O)c3ccc(C)c(Nc4nccc(-c5cccnc5)n4)c3)cc(C(F)(F)F)c2)cn1 [nilotinib] (first compound 0.2 µM, partner dose 0.2 µM)",136
5,"O=c1[nH]nc(Sc2ncc([N+](=O)[O-])s2)n1-c1ccc2c(c1)OCCO2 + CC(C)C[C@H](NC(=O)[C@H](Cc1ccccc1)NC(=O)c1cnccn1)B(O)O [Bortezomib] (first compound 0.2 µM, partner dose 0.001 µM)",83.1
6,"O=c1[nH]nc(Sc2ncc([N+](=O)[O-])s2)n1-c1ccc2c(c1)OCCO2 + Cc1nc(Nc2ncc(C(=O)Nc3c(C)cccc3Cl)s2)cc(N2CCN(CCO)CC2)n1 [dasatanib] (first compound 0.2 µM, partner dose 0.004 µM)",94.3
7,"O=C(O)c1ccc(-c2c[nH]c3ncc(-c4ccccc4)cc23)cc1C1CCCC1 + Oc1nc(-c2ccc(C(F)(F)F)cc2)nc2c1CSCC2 [XAV939] (first compound 0.16 µM, partner dose 2 µM)",91.1
8,"CC1(C)NC(=O)N(c2ccc([N+](=O)[O-])c(C(F)(F)F)c2)C1=O [nilutamide] + CCN(CC)CCCCNc1ncc2cc(-c3cc(OC)cc(OC)c3)c(NC(=O)NC(C)(C)C)nc2n1 [PD173074] (first compound 1 µM, partner dose 0.1 µM)",109
9,"Cn1cncc1[C@@](N)(c1ccc(Cl)cc1)c1ccc2c(c1)c(-c1cccc(Cl)c1)cc(=O)n2C [tipifarnib] + c1cc(-c2cnn3cc(-c4ccc(OCCN5CCCCC5)cc4)cnc23)ccn1 [Dorsomorphin] (first compound 0.01 µM, partner dose 0.4 µM)",86.7
10,"C[C@@H]1CCN(C(=O)CC#N)C[C@@H]1N(C)c1ncnc2[nH]ccc12 + COc1cc(N2CCC(N3CCN(C)CC3)CC2)ccc1Nc1ncc(Cl)c(Nc2ccccc2S(=O)(=O)C(C)C)n1 [NVP-TAE684] (first compound 1 µM, partner dose 0.08 µM)",118
11,"O=C(O)c1ccc(-c2c[nH]c3ncc(-c4ccccc4)cc23)cc1C1CCCC1 + Oc1cc(-c2nc(-c3ccccc3)[nH]c2-c2ccncc2)ccc1Cl [L779450] (first compound 0.16 µM, partner dose 0.2 µM)",85
12,"COc1cc(Nc2ncc(F)c(Nc3ccc4c(n3)NC(=O)C(C)(C)O4)n2)cc(OC)c1OC [Tamatinib] + COc1ccc2c(c1)CCC1C2CCC2(C)C(NCCCCCCN3C(=O)C=CC3=O)CCC12 [U73122] (first compound 0.4 µM, partner dose 0.4 µM)",84.2
13,"C[C@@H]1CCN(C(=O)CC#N)C[C@@H]1N(C)c1ncnc2[nH]ccc12 + O=S(=O)(c1ccccc1)N(CC(F)(F)F)c1ccc(C(O)(C(F)(F)F)C(F)(F)F)cc1 [T0901317] (first compound 1 µM, partner dose 1.4 µM)",96.2
14,"O=c1[nH]nc(Sc2ncc([N+](=O)[O-])s2)n1-c1ccc2c(c1)OCCO2 + COc1ccc(C2=N[C@@H](c3ccc(Cl)cc3)[C@@H](c3ccc(Cl)cc3)N2C(=O)N2CCNC(=O)C2)c(OC(C)C)c1 [Nutlin-3] (first compound 0.2 µM, partner dose 0.1 µM)",105
15,"CC1(C)NC(=O)N(c2ccc([N+](=O)[O-])c(C(F)(F)F)c2)C1=O [nilutamide] + COc1cc(N2CCC(N3CCN(C)CC3)CC2)ccc1Nc1ncc(Cl)c(Nc2ccccc2S(=O)(=O)C(C)C)n1 [NVP-TAE684] (first compound 1 µM, partner dose 0.08 µM)",115
